The source of these data is ChEMBL document CHEMBL4888484, “Replenishing the malaria drug discovery pipeline: Screening and hit evaluation of the MMV Hit Generation Library 1 (HGL1) against asexual blood stage Plasmodium falciparum ,using a nano luciferase reporter read-out” (2022).

Structures are written as SMILES. Among all 150,000 compounds or so, about 540 (0.36%) showed an effect of 50% or more. The list shows a part of the results.

This assay concerns Plasmodium falciparum. The assay is described as follows: Primary screen in NF54 nanoGlo assay, in single point, at 2uM, 72h; a lower Z score goes with more inhibition. Format: functional, Erythrocyte. As to conditions: timepoint 72 hour.
Take `CCc1csc(CNC(=O)c2nn(C)cc2Cl)n1`: the “% Inhibition” value is recorded as -7% and the Z score worked out at 0.77.
The matching figures for `O=C([C@H]1CC(=O)N(c2ccccc2)C1)N1CCN(C(c2ccccc2)c2ccccc2)CC1`: -10% and 1.16.
Regarding `COc1nc(N[C@@H](C)Cc2cccc(C)n2)ncc1F`, the “% Inhibition” value was -7% and the Z score was 0.86.
Regarding `CC(C)Cc1ncc2c(n1)CN(CC(=O)Nc1ccc(C(N)=O)cc1)C2`, the “% Inhibition” value is -1% and the Z score stood at 0.23.
Consider `CN1C[C@@H](NS(=O)(=O)c2ccccc2C(C)(C)C)CCC1=O`, for which the “% Inhibition” value came out at 1% and the Z score is on record as -0.25.
For the compound `COCC(=O)Nc1cc(C(=O)N(C)CC(C)C)c2c(c1)ncn2CCc1ccccc1`, the “% Inhibition” value worked out at 7% and the Z score was -0.86.
Regarding `CC(C)CNC(=O)c1ccc(Cl)cc1Cl`, the “% Inhibition” value stood at 2% and the Z score is on record as -0.31.
In the case of `O=C1NC2(CCN(S(=O)(=O)c3ccccc3F)CC2)N=C1c1ccccc1`, the “% Inhibition” value is recorded as -13% and the Z score worked out at 2.04.
With `O=C(Nc1ccc(OCC2CCCCC2)cc1)N1CC[C@@H](O)C1`, the “% Inhibition” value was -2% and the Z score was found to be 0.27.
Consider `C[C@H]1COc2ccc(CN3CCOCC3)cc2CN1C(=O)COc1ccc(F)cc1`, for which the “% Inhibition” value came to 0% and the Z score is recorded as -0.01.
As to `Cc1ccccc1N1C[C@@H](C(=O)N2CCc3ccccc32)CC1=O`, the “% Inhibition” value is reported as 7% and the Z score is recorded as -0.97.
As to `O=C(C[C@@H]1NC(=O)N(CCc2c[nH]c3ccccc23)C1=O)NCc1cccnc1`, the “% Inhibition” value is recorded as 7% and the Z score is listed as -0.86.
For the compound `O=C(c1cnc2ccccn2c1=O)N1[C@@H]2CC[C@H]1C[C@@H](O)C2`, the “% Inhibition” value is recorded as -7% and the Z score is 0.83.
The matching figures for `O=C([C@@H]1CC(F)(F)CN1C(=O)c1cc(F)ccc1Cl)N1CCc2ccccc2C1`: -17% and 2.94.
For the compound `O=C(CC[C@H]1CCCOC1)Nc1cnns1`, the “% Inhibition” value is listed as 1% and the Z score is recorded as -0.08.
Consider `CC1(C)CCc2ccccc2[C@H]1Nc1nccn2cnnc12`, for which the “% Inhibition” value was -5% and the Z score is 0.64.
On to `O=C(Nc1ccc(-c2nccn2C(F)F)cc1)NC1CC2CCC1O2` (stereo unspecified), for which the “% Inhibition” value is given as -7% and the Z score is 0.64.
With `Cc1conc1CN1CCCC[C@H]1C1(CN)CCC1`, the “% Inhibition” value is -12% and the Z score was 2.34.
With `Cn1nnc(-c2cccc(NC(=O)CCc3nc4ncccc4[nH]3)c2)n1`, the “% Inhibition” value is on record as 9% and the Z score was -1.34.
As for `CC(C)(C)OC(=O)N1CCC(CN2CCCC[C@H]2C(N)=O)CC1`, the “% Inhibition” value is on record as -6% and the Z score came out at 0.63.
Regarding `CCOc1cccc(C(C)NCC(=O)N2CC(C)OC(C)C2)c1` (stereo unspecified), the “% Inhibition” value is given as -10% and the Z score is given as 1.14.
Regarding `COc1cccc(-c2cn3c(n2)N(C(=O)Cn2ccnc2)CCC3)c1`, the “% Inhibition” value was -7% and the Z score was 1.12.
With `Cc1nc(C(C)C)sc1CN[C@H]1CCOC1`, the “% Inhibition” value was determined as 5% and the Z score is -0.78.
The matching figures for `CCN(Cc1noc(C)n1)[C@@H](C(=O)O)c1cc(C)c(OC)c(C)c1`: 18% and -2.33.
As for `O=S(=O)(NC1CCCC1Nc1ccccc1)c1ccc(Cl)cc1` (stereo unspecified), the “% Inhibition” value is recorded as 4% and the Z score is -0.54.
Turning to `Cc1ccc(Oc2nc(N3CCN(C)CC3)nc3c2CN(S(=O)(=O)c2ccc(F)cc2)CC3)cc1`, the “% Inhibition” value was -6% and the Z score worked out at 0.95.
The matching figures for `Cc1csc(C2CN(C3CCc4ccccc4NC3=O)CCO2)n1` (stereo unspecified): 9% and -1.24.
Regarding `Cc1n[nH]c(-c2ccc(S(=O)(=O)NC3CCC(C)CC3)o2)c1C` (stereo unspecified), the “% Inhibition” value is given as -5% and the Z score was 0.84.
Consider `COc1cc2c(cc1OC)[C@H](c1cccnc1)N(Cc1cnn(C)c1)CC2`, for which the “% Inhibition” value was -12% and the Z score is 1.27.
Consider `Cc1noc(OCc2ccc(Cl)s2)n1`, for which the “% Inhibition” value is on record as -1% and the Z score came to 0.16.
As to `Cc1cnc(CN2C[C@]3(CCCN(C(=O)CCC4CC4)C3)CCC2=O)cn1`, the “% Inhibition” value is -6% and the Z score is recorded as 0.88.
As to `Cc1cccc(=O)n1CCC(=O)NC[C@H]1CCOc2ccccc2C1`, the “% Inhibition” value was 0% and the Z score is reported as 0.04.
The matching figures for `Cc1ccc(-c2nc3n(CC(=O)N4CCOCC4)c(C)c(Cc4ccccc4)c(=O)n3n2)cc1`: 5% and -0.6.
On to `O=S(=O)(C[C@H]1CCCOC1)NCc1ccccc1-c1ncc[nH]1`, for which the “% Inhibition” value is -5% and the Z score came to 0.8.
Take `Cc1ccccc1C(CC(=O)NCc1ccccc1)c1cnc2n1C(C)CCC2` (stereo unspecified): the “% Inhibition” value is recorded as -4% and the Z score is reported as 0.66.
`CC(C)NC(=O)N(Cc1ccc(F)cc1)Cc1ccccc1OS(=O)(=O)c1ccc(F)cc1`: the “% Inhibition” value is reported as -10% and the Z score came out at 1.18.
As to `CN1CCN(C(=O)c2cncc(NC[C@@H]3COc4ccccc4C3)n2)CC1`, the “% Inhibition” value is given as -17% and the Z score was 2.54.
The matching figures for `CCc1nnc(N2CCC[C@H](c3nnc4ccccn34)C2)o1`: -1% and 0.09.
For the compound `COc1ccccc1CNC(=O)CN1CC[C@@]2(CCCNC2=O)C1`, the “% Inhibition” value is -2% and the Z score was found to be 0.28.
Turning to `O=C(CNC(=O)c1ccc(Br)cc1Cl)Nc1cn[nH]c1`, the “% Inhibition” value is 4% and the Z score is recorded as -0.68.
As to `O=C(NCc1ccc(Cl)cc1)c1nnsc1NC(=O)N1CCOCC1`, the “% Inhibition” value was -2% and the Z score is reported as 0.28.
Consider `Cc1cc(C(=O)Nc2cccc3ccccc23)co1`, for which the “% Inhibition” value came out at 1% and the Z score is given as -0.17.
Take `O=C(NCc1cc2n(n1)CCCO2)[C@H]1C[C@@H]1C(F)F`: the “% Inhibition” value is 9% and the Z score was -1.02.
Turning to `Cc1cccc(NC(=O)c2cccc(OCc3cn4cccc(C)c4n3)c2)n1`, the “% Inhibition” value was -24% and the Z score came out at 2.07.
The matching figures for `CCn1cc(S(=O)(=O)N2CC(n3cnnc3[C@@H]3CCCO3)C2)cn1`: -8% and 1.22.
With `Cc1nnc(CC(=O)N[C@H]2CC[C@H](CO)CC2)s1`, the “% Inhibition” value is -7% and the Z score came to 1.12.
The matching figures for `OC[C@@]12CCN(Cc3cccc(Cl)c3)C[C@@H]1CN(Cc1ccccc1)C2`: -16% and 1.91.
Take `COc1ccc(-c2cc(C(=O)N[C@H]3CCCc4ccccc43)n(C)n2)c(OC)c1`: the “% Inhibition” value is -5% and the Z score is 0.82.
As for `Cc1nc2ccccc2c(N2CCN3C(=O)NC[C@H]3C2)c1C`, the “% Inhibition” value is -9% and the Z score came out at 0.82.
On to `CN(C(=O)c1cccc(OCC(F)F)n1)c1ccc(-c2ccccc2)nn1`, for which the “% Inhibition” value is -4% and the Z score is 0.35.
For the compound `COc1ccc(Oc2nccc(-c3ccc(Cl)cc3)c2C#N)cc1`, the “% Inhibition” value is -4% and the Z score is given as 0.61.
In the case of `CCCOc1ccc(-c2nn(-c3ccccc3)cc2CNS(=O)(=O)c2ccc(OC)cc2)cc1`, the “% Inhibition” value is -2% and the Z score is reported as 0.24.
Turning to `CN(Cc1ncccc1Cl)C[C@@H]1C[C@H](F)CN1c1ccnc(N(C)C)n1`, the “% Inhibition” value is -4% and the Z score is listed as 0.63.

The term % Inhibition denotes the drop in the measured response relative to a control, in per cent.
